# The whole screen tested about 350,000 compounds, of which about 31,000 (8.9%) were called active. This list was built around the results that the source calls inconclusive (neither active nor inactive); the mix of calls is not that of the screen. Calls come from the whole dose curve; as a rule, active = well fitted inhibition curve with a large enough effect; inconclusive = small, poorly fitted or top-dose-only effect; inactive = no such curve, though single readings can be large or run the other way. Where the call is inconclusive, the potency comes from a doubtful curve fit.
# Molecular target: Histone-lysine N-methyltransferase EHMT2 (Homo sapiens) (UniProt Q96KQ7)
# Assay: qHTS Assay for Inhibitors of Histone Lysine Methyltransferase G9a; note: nearly all actives have a fitted effect of over 75% in size
# Settings: G9a H3K9 monomethylation, AlphaScreen, 2 h; activity, negative = inhibition: at 59 µM (top of the series) unless noted
# Procedure, shortened: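 G9a (20 nM) was preincubated 15 min with compound, then reacted 2 h at room temperature with 500 nM biotin-H3K9 peptide and 20 µM SAM. Monomethyl-H3K9 detected by AlphaScreen using anti-H3K9me1 antibody.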
# % is set by controls: 0 for no effect and ±100 for the full control effect; potency is the fitted concentration of half-maximal effect; tags give direction and shape of the fitted curve.
# Sequence of UniProt Q96KQ7 (Q96KQ7 whole entry, looked up): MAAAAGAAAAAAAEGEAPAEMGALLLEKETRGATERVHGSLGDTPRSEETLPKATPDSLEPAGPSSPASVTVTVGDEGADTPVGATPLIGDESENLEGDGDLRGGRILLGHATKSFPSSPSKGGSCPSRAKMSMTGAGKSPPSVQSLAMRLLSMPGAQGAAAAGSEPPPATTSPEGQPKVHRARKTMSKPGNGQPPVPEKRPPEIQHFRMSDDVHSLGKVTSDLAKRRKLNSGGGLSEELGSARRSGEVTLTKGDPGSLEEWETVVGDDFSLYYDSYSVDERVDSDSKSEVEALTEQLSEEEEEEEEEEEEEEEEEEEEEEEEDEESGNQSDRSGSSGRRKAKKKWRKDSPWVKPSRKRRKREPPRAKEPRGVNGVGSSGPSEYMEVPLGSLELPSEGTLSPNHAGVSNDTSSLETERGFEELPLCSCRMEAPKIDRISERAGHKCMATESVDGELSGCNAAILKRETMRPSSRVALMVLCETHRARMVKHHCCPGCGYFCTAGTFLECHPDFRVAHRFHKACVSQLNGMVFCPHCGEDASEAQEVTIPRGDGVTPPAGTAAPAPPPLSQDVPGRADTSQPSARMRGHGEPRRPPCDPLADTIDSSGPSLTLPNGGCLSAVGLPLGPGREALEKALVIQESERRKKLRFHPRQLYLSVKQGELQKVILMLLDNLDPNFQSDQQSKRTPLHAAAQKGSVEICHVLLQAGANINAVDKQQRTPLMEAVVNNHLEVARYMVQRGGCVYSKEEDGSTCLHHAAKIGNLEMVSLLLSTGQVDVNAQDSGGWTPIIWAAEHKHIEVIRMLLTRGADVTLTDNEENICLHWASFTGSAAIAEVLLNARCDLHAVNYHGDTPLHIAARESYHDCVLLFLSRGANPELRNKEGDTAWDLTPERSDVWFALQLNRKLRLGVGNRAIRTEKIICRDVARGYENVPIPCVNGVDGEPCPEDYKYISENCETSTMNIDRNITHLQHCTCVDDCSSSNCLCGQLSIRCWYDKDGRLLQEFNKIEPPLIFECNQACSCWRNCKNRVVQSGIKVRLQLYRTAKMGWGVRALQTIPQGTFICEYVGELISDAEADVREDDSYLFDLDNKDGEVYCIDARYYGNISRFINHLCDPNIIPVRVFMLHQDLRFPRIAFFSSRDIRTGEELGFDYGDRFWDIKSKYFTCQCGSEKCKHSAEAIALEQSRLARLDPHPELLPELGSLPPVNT
Structure (SMILES),Potency,"activity, negative = inhibition"
COc1cc(NC(=O)CCn2cnc3ccccc3c2=O)cc(OC)c1,inactive,–
COc1cccc(/C=N/Nc2ncccc2[N+](=O)[O-])c1OC,"inconclusive: 44.7 µM [inhibitor, partial curve]",–
CCc1cccc(C)c1NC(=O)c1cc(S(=O)(=O)N2CCOCC2)cn1C,"inconclusive: 39.8 µM [inhibitor, partial curve, poor fit]",–
COc1ccc(OCCn2c(C)nc3cc(C)c(C)cc32)cc1,"inconclusive: 10 µM [inhibitor, partial curve, poor fit]",–
O=C1C(Cl)=C(Nc2cccc(O)c2)C(=O)N1Cc1ccccc1,active: 35.5 µM,–
COc1ccc(C)cc1S(=O)(=O)NCC(c1cccnc1)N1CCc2ccccc2C1 (stereo unspecified),"inconclusive: 79.4 µM [inhibitor, partial curve]",–
O=S(=O)(Cc1ccccc1)NCc1ccccn1,–,inconclusive: -119% [inhibitor]
O=C(CN1C(=O)C2CC=CCC2C1=O)Nc1nc2ccccc2[nH]1 (stereo unspecified),"inconclusive: 31.6 µM [inhibitor, full curve]",–
CCCCOc1ccc(CNC(=O)c2cc3n(n2)CCCN(Cc2ccc(C)cc2)C3=O)cc1,inactive,–
COc1cc2[nH]c3c(N4CCN(c5ccc(Cl)cc5)CC4)ncnc3c2cc1OC,inactive,–
Cc1cc(OC(=O)c2ccc(Cl)cc2Cl)c([N+](=O)[O-])c(=O)[nH]1,active: 79.4 µM,–
Clc1ccc(Cn2ncc3c(NCc4ccco4)ncnc32)c(Cl)c1,–,inconclusive: -69.9% [inhibitor]
O=[N+]([O-])c1ccc(S(=O)(=O)N2CCN(Cc3ccco3)CC2)cc1,"inconclusive: 8.91 µM [inhibitor, full curve, poor fit]",–
CN(CCOc1ccc(Cl)cc1)C(=O)c1cc([N+](=O)[O-])ccc1N1CCOCC1,"inconclusive: 39.8 µM [inhibitor, partial curve, poor fit]",–
COc1ccccc1NS(=O)(=O)c1cc(N2Cc3ccccc3C2=N)ccc1N1CCOCC1,active: 14.1 µM,–
O=C(C(=O)N1CCN(c2ccccc2F)CC1)c1c[nH]c2ccccc12,inactive,–
CCOc1cccc(C(=O)Nc2ccc3oc(-c4cccnc4)nc3c2)c1,"inconclusive: 6.31 µM [inhibitor, single point]",–
COc1ccc(N2CCN(C(=O)CSc3nnc4c5cc(C)ccc5n(C)c4n3)CC2)cc1,"inconclusive: 44.7 µM [inhibitor, partial curve, poor fit]",–
CCCNC(=O)CC(NS(=O)(=O)c1ccc(Cl)cc1)c1ccco1 (stereo unspecified),inactive,–
Cc1ccc2cc(CN(Cc3ccc(F)cc3)Cc3nnnn3C3CCCC3)c(=O)[nH]c2c1,active: 14.1 µM,–
CCOc1ccc(C(=O)Nc2cc(S(=O)(=O)Nc3ccccc3Cl)ccc2N2CCOCC2)cc1,inactive,–
S=C(N/N=C/c1ccccc1Cl)Nc1ccccc1,inactive,–
COc1ccc(NC(=O)c2noc3c2CCC3)cc1,"inconclusive: 3.98 µM [inhibitor, single point]",–

Structure (SMILES),Potency,"activity, negative = inhibition"
C=CCn1cnc2c(c1=O)c1nc3ccccc3nc1n2/N=C/c1cccc(OC)c1OC,"inconclusive: 8.91 µM [inhibitor, single point]",–
COc1ccc(CC(=O)OCC(=O)Nc2ccc(N3CCOCC3)cc2)cc1,active: 50.1 µM,–
Cc1ccc(NC(=O)c2ccc(NS(=O)(=O)c3ccc4[nH]c(=O)[nH]c4c3)cc2)nc1,"inconclusive: 89.1 µM [inhibitor, partial curve, poor fit]",–
COCCNC(=O)C(C)OC(=O)c1cc2occc2n1C (stereo unspecified),"inconclusive: 1.78 µM [inhibitor, partial curve, poor fit]",–
O=C(COc1nncc2ccccc12)NCCC1=CCCCC1,"inconclusive: 22.4 µM [inhibitor, partial curve, poor fit]",–
Cc1ccc([C@@H]2[C@@H]3C(=O)N(C)C(=O)[C@@H]3[C@]3(C)C(=O)N(Cc4ccccn4)CC(=O)N23)o1,"inconclusive: 100 µM [inhibitor, single point]",–
CCCOc1ccc(C(=O)Nc2cc(-c3nc4cc(C)cc(C)c4o3)ccc2C)cc1,inactive,–
O=C(COc1ccc(Cl)cc1)OCc1csc(Nc2ccccc2)n1,active: 10 µM,–
COc1ccc(Cc2nnc(NC(=O)c3ccco3)s2)cc1OC,"inconclusive: 56.2 µM [inhibitor, partial curve, poor fit]",–
Cc1c(Cl)cccc1NC(=O)COC(=O)C12CC3CC(CC(O)(C3)C1)C2,"inconclusive: 15.8 µM [inhibitor, partial curve, poor fit]",–
COc1ccc(/C=C(/C(=O)c2cccs2)N2C=CC=CC2=C(C#N)C#N)cc1,active: 8.91 µM,–
COCCN1CCC(CNCc2cn(-c3cc(C)ccc3C)nc2-c2ccccc2)C1 (stereo unspecified),inactive,–
O=C(Nc1ccccc1Cl)Oc1ccc(-c2ccccc2)cc1,–,inactive: 3.4% [at 12.7 µM]
Cc1nc(-c2ccc(O)c(O)c2)cs1,active: 1.41 µM,–
C/C(=N\NC(=O)c1ccc(F)cc1)c1ccc(NC(=O)Cc2ccccc2)cc1,inactive,–
NS(=O)(=O)c1ccc(CCNCC(=O)NCc2ccccc2Cl)cc1,inactive,–
O=C(CCC(=O)N1CCN(c2ccccc2F)CC1)N1CCN(c2ccc(F)cc2)CC1,inactive,–
Cc1ccc(-n2c(C)nn(CC#N)c2=O)cc1,"inconclusive: 31.6 µM [inhibitor, full curve]",–
CCn1nnnc1SCC(=O)N1N=C(c2cccs2)CC1c1cccs1 (stereo unspecified),"inconclusive: 50.1 µM [inhibitor, partial curve, poor fit]",–
Clc1ccc(SCCn2cncn2)cc1,"inconclusive: 2.82 µM [inhibitor, partial curve, poor fit]",–
COC(=O)c1ccccc1OCCN1CCCCCC1,active: 11.2 µM,–
CNC(=O)COc1ccc(NC(=O)c2ccc(-c3nn(C)c(=O)c4ccccc34)cc2)cc1,"inconclusive: 39.8 µM [inhibitor, partial curve, poor fit]",–
Cc1ccc(NC(=O)COC(=O)c2ccc3c(c2)NC(=O)C2CCCN32)cc1C (stereo unspecified),"inconclusive: 25.1 µM [inhibitor, single point]",–

# Source: PubChem BioAssay AID504332 (National Center for Advancing Translational Sciences (NCATS), 2011)
